From the supplement of paper PMC3334620
In all, about 33,000 sequences were measured (“E-score (-0.5 to 0.5)”: median about -0.04, highest 2% from about 0.36 on). The list shows a part of the results.

The sequences below were run against T1, Hmlalpha2 (UniProt P0CY09) (assay: PBM E-score (8-mer binding enrichment) (E-score (-0.5 to 0.5)); higher = stronger / more preferred TF binding; most listed sequences are background and not binding sites). Settings: protein concentration: 200 nM; construct: GST-full length.
T1 sequence: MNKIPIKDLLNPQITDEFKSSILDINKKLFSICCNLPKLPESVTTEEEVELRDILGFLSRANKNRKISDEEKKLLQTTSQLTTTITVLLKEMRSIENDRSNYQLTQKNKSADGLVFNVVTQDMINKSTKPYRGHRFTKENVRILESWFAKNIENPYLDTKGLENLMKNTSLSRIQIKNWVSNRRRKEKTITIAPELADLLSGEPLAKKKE
Summary of the method: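 Universal all-10-mer Agilent arrays, fresh or stripped once, were converted to double-stranded form by primer extension. GST-tagged yeast transcription factors from PURExpress in vitro transcription/translation, full-length or DNA-binding domain only, were applied at about 100-200 nM and detected with fluorescent anti-GST. After masliner normalisation, the Universal PBM Analysis Suite scored each ungapped eight-base word together with its reverse complement by E-score.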
With AGAGGGAA the “PBM E-score” value was -0.22.
CCGCAACC was tested, and the “PBM E-score” value was -0.136.
For CCGGAATC, the “PBM E-score” value was -0.353.
In the case of CGGGGCAC, the “PBM E-score” value is reported as -0.0886.
In the case of CTACGGCC, the “PBM E-score” value is reported as -0.335.
In the case of CGTTCCCC, the “PBM E-score” value is reported as -0.0404.
TGAATGCA was tested, and the “PBM E-score” value was 0.0743.
For GGTAACGA, the “PBM E-score” value was -0.0795.
With ACGTATGA the “PBM E-score” value was 0.28.
ACGATTTA was tested, and the “PBM E-score” value was 0.244.
For GGAATCCA, the “PBM E-score” value was -0.283.
With AATATCAT the “PBM E-score” value was 0.139.
In the case of AATCCTAA, the “PBM E-score” value is reported as -0.111.
TCCACAAA was tested, and the “PBM E-score” value was -0.0439.
ACTCAACT was tested, and the “PBM E-score” value was 0.097.
For GATTTTCA, the “PBM E-score” value was 0.0811.
With AGGGGTAG the “PBM E-score” value was -0.248.
AGACAGTA was tested, and the “PBM E-score” value was 0.0949.
With GAAAGCTA the “PBM E-score” value was -0.195.
AACGTCTG was tested, and the “PBM E-score” value was -0.038.
For ACCCTACA, the “PBM E-score” value was 0.144.
CATTCGAC was tested, and the “PBM E-score” value was 0.0595.
CCGCAGGC was tested, and the “PBM E-score” value was 0.00351.
In the case of CCTAGTGC, the “PBM E-score” value is reported as -0.0708.
For AATTGGGC, the “PBM E-score” value was 0.0427.
AAGCAGAA was tested, and the “PBM E-score” value was -0.0442.
ACCCCTCC was tested, and the “PBM E-score” value was -0.287.
In the case of AAGCCACT, the “PBM E-score” value is reported as -0.218.
With AAGGAGAT the “PBM E-score” value was -0.222.
In the case of CTAGCAAA, the “PBM E-score” value is reported as 0.0206.
In the case of ACGAGACT, the “PBM E-score” value is reported as 0.0617.
For ATTAGGGG, the “PBM E-score” value was -0.211.
With CGCCCCCA the “PBM E-score” value was -0.346.
In the case of ATAGCATA, the “PBM E-score” value is reported as 0.193.
GCTACTAA was tested, and the “PBM E-score” value was 0.124.
For AACGCGGA, the “PBM E-score” value was 0.246.
GGAGCCAA was tested, and the “PBM E-score” value was -0.293.
In the case of GCCGGGGA, the “PBM E-score” value is reported as -0.319.
ACCCGAAC was tested, and the “PBM E-score” value was -0.112.
With ATGGTACA the “PBM E-score” value was 0.0453.
In the case of AGGGGTTG, the “PBM E-score” value is reported as -0.253.
GAAGAAGC was tested, and the “PBM E-score” value was -0.141.
For TGCGACAA, the “PBM E-score” value was 0.125.
With CCGCCAGG the “PBM E-score” value was -0.0364.
In the case of TCCTCCCA, the “PBM E-score” value is reported as -0.199.
For CAGTGAGC, the “PBM E-score” value was -0.124.
With AGGAAGGG the “PBM E-score” value was -0.313.
CGGCCGTA was tested, and the “PBM E-score” value was -0.182.
With AATCTTGG the “PBM E-score” value was -0.0305.
In the case of CTCTAGCA, the “PBM E-score” value is reported as -0.0969.
For AAAAAAAA, the “PBM E-score” value was 0.172.
In the case of ACTGTAGC, the “PBM E-score” value is reported as -0.0662.
For TAGACCCA, the “PBM E-score” value was -0.129.
AGGTACAC was tested, and the “PBM E-score” value was 0.0905.
CACCCACA was tested, and the “PBM E-score” value was -0.0855.
GATTATCC was tested, and the “PBM E-score” value was -0.175.
In the case of CCACGGGA, the “PBM E-score” value is reported as -0.0912.
For ATGGGTGA, the “PBM E-score” value was -0.0715.
With CCGACACG the “PBM E-score” value was 0.0312.
With CTCTCTAC the “PBM E-score” value was 0.0221.
With CGGTCGCA the “PBM E-score” value was -0.208.
In the case of GGGCACCA, the “PBM E-score” value is reported as -0.151.
With GTTCCACA the “PBM E-score” value was -0.077.
In the case of CACGCCGA, the “PBM E-score” value is reported as -0.147.
CCAACCAG was tested, and the “PBM E-score” value was -0.174.
For ATACGTAA, the “PBM E-score” value was 0.379.
For CGCAGGCA, the “PBM E-score” value was -0.0697.
CAAATGGG was tested, and the “PBM E-score” value was -0.132.
In the case of ACTATTAT, the “PBM E-score” value is reported as 0.0136.
In the case of GGAGCCAC, the “PBM E-score” value is reported as -0.308.
In the case of CCGCTGCG, the “PBM E-score” value is reported as -0.211.
For ACTGGTTC, the “PBM E-score” value was 0.0585.
With ATCGAGCA the “PBM E-score” value was -0.0893.
With ATGGTCTC the “PBM E-score” value was 0.0169.
With AATAGATA the “PBM E-score” value was 0.0285.
In the case of CTCGCGAG, the “PBM E-score” value is reported as -0.227.
For GTCACGTA, the “PBM E-score” value was 0.271.
In the case of AATGTTGT, the “PBM E-score” value is reported as 0.289.
In the case of CGTCACGA, the “PBM E-score” value is reported as -0.117.
With CTCTCCCC the “PBM E-score” value was -0.387.
With GCTTTTCA the “PBM E-score” value was 0.00885.
CGGCTACA was tested, and the “PBM E-score” value was 0.0805.
For AGGCACTC, the “PBM E-score” value was -0.19.
For AATCCGGG, the “PBM E-score” value was -0.29.
With AGTAAGTA the “PBM E-score” value was 0.166.
In the case of ACCCTGTC, the “PBM E-score” value is reported as -0.219.
In the case of CGGTCCCA, the “PBM E-score” value is reported as -0.241.
CCGGCGAA was tested, and the “PBM E-score” value was -0.169.
In the case of CCGCGTCC, the “PBM E-score” value is reported as 0.0285.
In the case of AATGTAAT, the “PBM E-score” value is reported as 0.461.
For AGAACGCC, the “PBM E-score” value was -0.0421.
In the case of GATTAACC, the “PBM E-score” value is reported as -0.108.
With AATGCAAA the “PBM E-score” value was 0.123.
With GGCATGAA the “PBM E-score” value was -0.0459.
For ACACCCTG, the “PBM E-score” value was 0.00619.
With AATTCTCG the “PBM E-score” value was 0.109.
For CCCCCGTC, the “PBM E-score” value was -0.35.
In the case of GGACGTCA, the “PBM E-score” value is reported as -0.0851.
GGCATCTA was tested, and the “PBM E-score” value was -0.0197.
For ATTCTTAG, the “PBM E-score” value was -0.0672.
With ACAAACTA the “PBM E-score” value was 0.126.
In the case of GCTACTCC, the “PBM E-score” value is reported as -0.37.
For CTGTAAAA, the “PBM E-score” value was 0.359.
In the case of ACAGTATA, the “PBM E-score” value is reported as 0.153.
GATCTGGA was tested, and the “PBM E-score” value was -0.178.
With AGCTCGAT the “PBM E-score” value was -0.165.
In the case of GAAGCTAA, the “PBM E-score” value is reported as -0.0677.
For GCTATCAA, the “PBM E-score” value was -0.0322.
With AGGTTATG the “PBM E-score” value was 0.0259.
With TGTCTCAA the “PBM E-score” value was -0.0917.
For GTCTACCA, the “PBM E-score” value was -0.144.
With AACAAATC the “PBM E-score” value was 0.139.
CGCGCGTA was tested, and the “PBM E-score” value was 0.283.
For GTATTGAA, the “PBM E-score” value was 0.216.
For CGGCGAAG, the “PBM E-score” value was -0.341.
For TATACCAA, the “PBM E-score” value was 0.128.
AGTTCTCA was tested, and the “PBM E-score” value was 0.0389.
For AAAAAATA, the “PBM E-score” value was 0.0882.
TCTGGCAA was tested, and the “PBM E-score” value was -0.181.
For GAGGTCAA, the “PBM E-score” value was -0.0488.
In the case of GCGGTCCA, the “PBM E-score” value is reported as -0.16.
For AGCGTAGG, the “PBM E-score” value was -0.16.
ATCCAACC was tested, and the “PBM E-score” value was -0.143.
In the case of GAAGAGGC, the “PBM E-score” value is reported as -0.235.
CGTCCGGC was tested, and the “PBM E-score” value was -0.144.
For CCGGTTCA, the “PBM E-score” value was -0.211.
With AAACCGGT the “PBM E-score” value was -0.0667.
For GGCGTGAC, the “PBM E-score” value was -0.0919.
With GATGCCGA the “PBM E-score” value was -0.0884.
In the case of AACATCCT, the “PBM E-score” value is reported as 0.0107.
GCTGGAGA was tested, and the “PBM E-score” value was -0.279.
GCCGGGTA was tested, and the “PBM E-score” value was -0.24.
For AGACGGCT, the “PBM E-score” value was -0.177.
In the case of GTATAACA, the “PBM E-score” value is reported as 0.378.
For ACACTTGC, the “PBM E-score” value was 0.0919.
In the case of GCTGAGAC, the “PBM E-score” value is reported as -0.0953.
In the case of AGGCCTAT, the “PBM E-score” value is reported as 0.147.
For GCTAATGA, the “PBM E-score” value was -0.185.
In the case of CGAGCTAA, the “PBM E-score” value is reported as -0.0985.
In the case of GATGCAAA, the “PBM E-score” value is reported as -0.223.
With CCTTAGAA the “PBM E-score” value was -0.0456.
GTTCACAA was tested, and the “PBM E-score” value was 0.252.
In the case of CTTGATCC, the “PBM E-score” value is reported as -0.142.
With AAATGGTA the “PBM E-score” value was 0.117.
With AAAATGCC the “PBM E-score” value was -0.121.
In the case of CTAGCATA, the “PBM E-score” value is reported as 0.00952.
With GATAACTA the “PBM E-score” value was 0.095.
For AAGGAGTC, the “PBM E-score” value was -0.279.
In the case of CTGAGCGC, the “PBM E-score” value is reported as -0.156.
For AACCCGTA, the “PBM E-score” value was -0.12.
ACTGATAC was tested, and the “PBM E-score” value was 0.0372.
CGGAAGGA was tested, and the “PBM E-score” value was -0.0677.
For GCTCGCCC, the “PBM E-score” value was -0.187.
In the case of AAATCTGC, the “PBM E-score” value is reported as 0.00182.
With ATTGACAC the “PBM E-score” value was 0.354.
For ATGGTTCA, the “PBM E-score” value was 0.0542.
CAGATAGC was tested, and the “PBM E-score” value was -0.275.
In the case of GGCCGGGA, the “PBM E-score” value is reported as -0.237.
In the case of TACGTCTA, the “PBM E-score” value is reported as 0.108.
In the case of AGGTCGTC, the “PBM E-score” value is reported as -0.228.
In the case of AAGTACTT, the “PBM E-score” value is reported as 0.133.
For AATCACAT, the “PBM E-score” value was 0.183.
With CGACACAA the “PBM E-score” value was 0.204.
For GCTGCGAA, the “PBM E-score” value was -0.0258.
ACACAGCC was tested, and the “PBM E-score” value was 0.317.
In the case of GGTTCTTA, the “PBM E-score” value is reported as 0.0405.
AGATCACT was tested, and the “PBM E-score” value was -0.0166.
In the case of CAGTTGAG, the “PBM E-score” value is reported as -0.135.
GCCTCGGA was tested, and the “PBM E-score” value was -0.294.
With GACTCTCA the “PBM E-score” value was -0.277.
With ACACACAT the “PBM E-score” value was 0.379.
In the case of ACATAAGC, the “PBM E-score” value is reported as 0.24.
